Measured values as given in the RNAGym collection of RNA variant scans (doi:10.1073/pnas.2313332121).
Variants at the background level are over-represented here.

B1: TPR 5TU (parent)
chain: GGAUCUUCUCGAUCUAACAAAAAAGACAAAUCUGCCACAAAGCUUGAGAGCAUCUUCGGAUGCAGAGGCGGCAGCCUUCGGUGGCGCGAUAGCGCCAACGUUCUCAACUAUGACACGCAAAACGCGUGCUCCGUUGAAUGGAGUUUAUCAUG

Variants of: B1
Assay: polymerase ribozyme fitness, log enrichment relative to wild type (log ratio); higher = more active; in vitro selection for triplet polymerase activity
How it was run: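 Fitness compares each genotype's enrichment to that of the wild type on a logarithmic scale, averaging replicates with inverse-variance weights. The logarithm is base 2. Enrichment came from Illumina sequencing of input and output libraries after one triplicate round of in vitro selection, which included frozen incubation at −7 °C, of PCR-built, transcribed mutant libraries of each subunit of a heterodimeric triplet polymerase ribozyme. Only genotypes with ≥10 input reads and ≥1 read per output were kept.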

Variant	polymerase ribozyme fitness (log ratio)
U55G C57U C63G A66U G94C U104G	≤ -4.2
U55G U78G C87G	≤ -4.2
U56A G70C	-3.24
C57A G59C U146C U148A C149U	-3.99
U55G G83C C116A A138U	≤ -4.2
C57G G86A C95U C99U G141U	-3.92
C57U A60C C79U G92U	≤ -4.2
C57G G70C C75U U78G C114U C132G G141C	≤ -4.2
U55A G65U G74A A97U C99G	≤ -4.2
U55A G81C C118G G141A U146A	-2.94
C57A A60C	-1.35
C57A A91U G100A A107G A110G	≤ -4.2
U55G C85G C132U	-2.9
U55C C75G C76U G80A C87G C108U	≤ -4.2
U55G C99A C108G U134G	≤ -4.2
U56A U78G G92U C114U C116A A137C G152U	≤ -4.2
U56A G74C	-4.17
U55G G84A A89U C103U	-1.64
U56G G84A G133A	≤ -4.2
C57U A91C	≤ -4.2
C57U C95U C103G	-1.87
U56C A120U A122G U127C C129G U145A C149U	≤ -4.2
U56C G58A G84A U145G	0.113
U55C C85U A97U	-1.16

Variant	polymerase ribozyme fitness (log ratio)
U55A G94C U148G	≤ -4.2
C57A C87G U134A U135C	≤ -4.2
U56A A113G	-1.32
U56A C96U	-0.499
U55G C79G C96A A119C	≤ -4.2
U55A C57U C87G C125A	≤ -4.2
U55C A60C A89G A119U A150U	≤ -4.2
C57G G83U	-0.732
C54U U78A U90C G92A G133C	≤ -4.2
U55A G58U G83C G124C C132G	≤ -4.2
U55G C79U A91C G124C C129A A137U	≤ -4.2
U55A G58A A89C A120U U134C	0.161
U56A C85G	-2.44
U56A C85U	-0.564
C57U C95U A115C C125U U134A U139G	≤ -4.2
U55A C85A C105U U134A	≤ -4.2
U56A C69U A106G	-1.79
U55G A91C	≤ -4.2
U55C G71C G84C C85G C96A U101C U139A G141U C149A	≤ -4.2
C54U U77C A98G C99A U101C C118A A142C C149G	≤ -4.2
U55G U56A G68A C96U	≤ -4.2
U55A A60G A137C	-3
U55A U78G G94U C114G	≤ -4.2
C57A G86U C123U C125U	-0.745

Variant	polymerase ribozyme fitness (log ratio)
C54U U55A C75G G86A A97G	≤ -4.2
U55A U56A C87A	≤ -4.2
U56A G92C	-1.7
U56A G92A	-2.28
C57G C85A G94A C131A U139C	≤ -4.2
C57G A120U U144A	-1.24
C57G A73U C118G A121U G140U	≤ -4.2
U55A A60C	-4.18
C57U	-0.0371
C57G	-0.448
C57A	-0.00233
U56G C93G A97G A106G U134A	≤ -4.2
U55G C57G G74A G84A C123U G128U	≤ -4.2
U55A A97G G133U	≤ -4.2
C57G U61G C69U	≤ -4.2
C57U C96G U130A	-3.15
U55G U90A C103G G143C	≤ -4.2
U56G U146G	-3.46
U55G G88C C95U A98G A110C A142C A150C	≤ -4.2
C57G G70A G86A	≤ -4.2
U56A U134A G143C	-4.04
C57G C85G A110U C118A A122U C123U	≤ -4.2
U56A C149U	-0.627
U55A G67C C96U U111A	≤ -4.2

Variant	polymerase ribozyme fitness (log ratio)
U56G G65U C76U C87A A107C U145A	≤ -4.2
C57G U61A C114U G136U U139C G143A	≤ -4.2
U56A A73G C87G	≤ -4.2
U55A G58C G92A C103A	≤ -4.2
U56A G68A G80A C93U	≤ -4.2
U55A C57U C87G G117U C118G U151A	≤ -4.2
U55A G124U U139G	0.0477
C57A G80C A137C G143U	≤ -4.2
U55A C72G A113C G152A	≤ -4.2
U55A G68U C85A	≤ -4.2
U55A A91U C96A C125G A142G	≤ -4.2
C57A G80C U109C	≤ -4.2
C57G C85G C93G C108G U127G	≤ -4.2
C57A A73G G80C C114U U134A	≤ -4.2
U56A U109C	-3.5
U56G C114U	-1.85
C57G G67U G92C A106C	≤ -4.2
U55A G92U U146C	-0.69
U55A U61C A66C G74U U78G A115C A121U	≤ -4.2
U55A G83A G86C A98G C149U	≤ -4.2
U56A C103G	-0.914
U56A C103U	-0.0268
U55A C75U A91U G124C G136U	≤ -4.2
U56A G83U C93G	≤ -4.2

Variant	polymerase ribozyme fitness (log ratio)
C54U G94A	-0.351
C54U G94C	-1.15
C57A C87U G100U G124A	≤ -4.2
C57U C105A	-0.73
U56A G117C	-0.369
C57G C87U A91C C129G U130A U135A G141U A150C	≤ -4.2
U56A G133A	≤ -4.2
U55A C72U C79A A107G	≤ -4.2
C57U C114G	-2.73
U56A C118U C123G U144C	-0.722
U56G U78G C79U G86A C87G C95A A115U G152C	≤ -4.2
U55A C87U	-1.1
U55C A73U A97U U144G	-1.48
C54U U55A C79G C93U A98G C116G A122U	≤ -4.2
C57G G68U G94U C116G	≤ -4.2
U55G G81A C118U U135G	-3.84
U56G A60C A91C G92C G143A	≤ -4.2
C57A C75A U134G	≤ -4.2
U55G C79A C85G	≤ -4.2
U55A G83U	-1.69
U56A U144A	-0.302
C57U C75G C76G C85G U104A	≤ -4.2
U55A U82C	-0.191
C57G G94A G141C	-0.316

Variant	polymerase ribozyme fitness (log ratio)
C57A A73C C87A C103A C123U U148A	≤ -4.2
C57G G58A A91G	-3.24
U56A C93U A98U C108U A122C G128A U144C	≤ -4.2
U55A A113C	-2.92
U56A G88C	-4.12
U56A G88U	-3.06
C54U U55G G84A A89U U90G A97U A147U U151C	≤ -4.2
U56C C87U A89G U101G	-2.81
C57A G117U	0.691
U55G G62A C116G	-1.02
C57G A91G	-4.08
C57U C116G	0.474
U55A A107G	-3.7
C57U A97G G128C G141C	-3.99
U55A U78C C79A C85A G112U U139A	≤ -4.2
C57G C96A U139G	-0.754
U56A C79U U82G C85U A122G C129A G136U	≤ -4.2
U56A G80U G84U U102G G124U	≤ -4.2
U55G A106C	-0.416
U55A U82G C116A A121U A137C	-3.5
U56A G71U U78G C85U G143U	≤ -4.2
U56C C76A A91U A97G	≤ -4.2
U56A G58C G92U C93A C118A	-3.82
U56A G88C C99U U145A	≤ -4.2

Variant	polymerase ribozyme fitness (log ratio)
U56A G92A C108U C118U	≤ -4.2
U56C C95A U102A	-1.87
U55A C93U A115U G143U	≤ -4.2
C57U A142C	-0.377
U55G G70C A107U U111C A142G	≤ -4.2
C57A C76U C85U G92C G126C	-2.15
C57A G92U	-0.638
C57A C63U C87U G94C A97U G117U U134G	≤ -4.2
U56A G58C C85U	-0.365
C57A C79U C85U G92A C95G	≤ -4.2
U55G G92U U139G U146G	-1.4
C57U C85A G100U A138G	≤ -4.2
C57A G67C C87G C114G	≤ -4.2
U55G G71U	-1.86
U55A G124A	-0.272
U56G G71C C85U C116A	≤ -4.2
C54U G141A U151G	≤ -4.2
U56A G88C C129U U134G A137U	≤ -4.2
C57A G70A G86U C96A C99U U134C U146C	≤ -4.2
U56A A60G G92U U102A C114U C123U	≤ -4.2
C57A G92A C93U C105A A107G G128A	≤ -4.2
U56A A97G	-0.89
C57A U61A G71A C116A	≤ -4.2
